Article PMC9352346
Where a chain is given by its changes, count along the chain named. Names and notes keep the numbering of the source. No constants are given. Whether binding was seen depends on the method and setting. For some of these results: In cells and extracts the contact can be indirect. Some entries that bind do so weakly or less than the wild type. For some of these results: Where a sequence is shown, tags or fusion partners need not be part of it. Each block holds one binder with its values, some of them ahead of it.

Amino acid sequences for entries named in this document (tags omitted). Residues count along the entry.
UniProt Q15797, residues 271-465: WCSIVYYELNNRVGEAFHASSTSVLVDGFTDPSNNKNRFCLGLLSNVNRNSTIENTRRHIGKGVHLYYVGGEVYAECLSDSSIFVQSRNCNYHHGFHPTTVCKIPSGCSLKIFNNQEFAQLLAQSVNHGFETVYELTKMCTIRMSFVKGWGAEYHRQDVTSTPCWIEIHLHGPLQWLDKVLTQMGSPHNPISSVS
UniProt P84022, residues 232-425: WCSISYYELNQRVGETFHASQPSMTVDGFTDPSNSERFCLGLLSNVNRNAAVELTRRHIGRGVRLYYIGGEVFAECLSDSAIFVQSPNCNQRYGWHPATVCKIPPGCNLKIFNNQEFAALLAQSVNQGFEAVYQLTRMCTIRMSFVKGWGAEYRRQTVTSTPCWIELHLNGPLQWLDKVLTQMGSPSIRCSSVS

Legend:
GFP-Smad2 (WT), Q15796 = test: co-IP; HEK293T cell lysates co-expressing GFP- and Myc-tagged proteins incubated with anti-GFP antibody, captured on protein A/G beads; with or without overexpressed Arl15-AL (Figure 4f); details: remark: other sources report otherwise
GST-Smad4, Q13485 = molecular target: T1, GST-Smad4, Q13485; test: pull-down; bead-immobilized GST-Smad4 incubated with HEK293T cell lysates expressing GFP-Smad2 or GFP-Smad1 (WT, SA or SE) with or without overexpressed Arl15-AL; only the target purified; details: remark: other sources report otherwise
T1 chain: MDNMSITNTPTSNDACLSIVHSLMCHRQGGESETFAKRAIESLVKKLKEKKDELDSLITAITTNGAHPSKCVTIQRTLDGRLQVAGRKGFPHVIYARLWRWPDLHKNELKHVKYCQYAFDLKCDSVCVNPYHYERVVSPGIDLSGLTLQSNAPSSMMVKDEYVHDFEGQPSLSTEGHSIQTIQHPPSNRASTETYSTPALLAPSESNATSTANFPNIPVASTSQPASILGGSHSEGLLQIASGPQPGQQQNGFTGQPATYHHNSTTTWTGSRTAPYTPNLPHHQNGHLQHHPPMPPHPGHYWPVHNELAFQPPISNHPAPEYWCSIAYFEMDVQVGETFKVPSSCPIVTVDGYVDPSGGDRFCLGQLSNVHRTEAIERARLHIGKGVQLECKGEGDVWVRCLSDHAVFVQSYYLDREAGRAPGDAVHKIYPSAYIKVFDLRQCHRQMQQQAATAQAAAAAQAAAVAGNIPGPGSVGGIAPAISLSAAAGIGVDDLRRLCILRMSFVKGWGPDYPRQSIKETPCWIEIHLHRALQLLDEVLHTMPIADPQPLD

GST-Smad4-MH2 [1] = molecular target: GST-Smad4-MH2 (UniProt Q13485); test: pull-down; bead-immobilized GST-fusions of MH2 domains incubated with purified His-tagged Arl15-AL or TN; immunoblotted against His-Tag; both purified
[2] = molecular target: GST-fusion of the MH2 domain of Smad1 (UniProt Q15797); test: as above
[3] = molecular target: GST-fusion of the MH2 domain of Smad2 (UniProt Q15796); test: as above
[4] = molecular target: GST-fusion of the MH2 domain of Smad3 (UniProt P84022); test: as above
[5] = molecular target: endogenous Smad4 (human (endogenous in HEK293T)) (UniProt Q13485); test: co-IP; HEK293T cells after Arl15 or control (GL2-shRNA) knockdown, serum-starved 4 hr, then further starvation or 5 ng/ml TGFβ1 for 20 hr; lysates incubated with anti-Smad4 antibody
[6] = molecular target: endogenous Smad4 (human (endogenous in HEK293T)) (UniProt Q13485); test: co-IP; HEK293T cell lysates incubated with anti-Smad4 antibody in the presence of 1 µM GDP; immunoblotted against Arl15 and Smad4
[7] = molecular target: endogenous Smad4 (human (endogenous in HEK293T)) (UniProt Q13485); test: as above; remark: listed apart in the source
[8] = molecular target: endogenous Smad4 (human (endogenous in HEK293T)) (UniProt Q13485); test: co-IP; HEK293T cell lysates incubated with anti-Smad4 antibody in the presence of 1 µM GMPPNP; immunoblotted against Arl15 and Smad4
GST-Smad4 [9] = molecular target: GST-Smad4 (UniProt Q13485); test: pull-down; bead-immobilized GST-Smad4 incubated with HeLa cell lysates expressing Arl15-AL-Myc harboring indicated mutation; immunoblotted against Myc-tag; only the target purified
GST-Smad4-MH1 = GST-Smad4-MH1 (UniProt Q13485); test: pull-down; bead-immobilized GST-fusions of Smad4 fragments incubated with HEK293T cell lysate expressing Arl15-AL-GFP; immunoblotted against GFP; 4 °C; only the target purified
GST-Smad4 [10] = molecular target: GST-Smad4 (UniProt Q13485); test: as above
GST-Smad4-MH2 [11] = molecular target: GST-Smad4-MH2 (UniProt Q13485); test: as above
HA-Smad4-MH2 = HA-Smad4-MH2 (UniProt Q13485); test: pull-down; competition in the pull-down of a13: Arl15-AL and HA-Smad4-MH2 co-expressed in HEK293T cells; loss of HA-Smad4-MH2 from GST-Smad4-MH1 beads

binding (GFP-Smad2 (WT), Q15796): no binding
B1: Myc-Smad4, Q13485 1-552 (protein)
chain: T1 chain

binding (GST-Smad4, Q13485): no binding
B2: GFP-Smad2 (WT), Q15796 1-467 (protein)
chain: MSSILPFTPPVVKRLLGWKKSAGGSGGAGGGEQNGQEEKWCEKAVKSLVKKLKKTGRLDELEKAITTQNCNTKCVTIPSTCSEIWGLSTPNTIDQWDTTGLYSFSEQTRSLDGRLQVSHRKGLPHVIYCRLWRWPDLHSHHELKAIENCEYAFNLKKDEVCVNPYHYQRVETPVLPPVLVPRHTEILTELPPLDDYTHSIPENTNFPAGIEPQSNYIPETPPPGYISEDGETSDQQLNQSMDTGSPAELSPTTLSPVNHSLDLQPVTYSEPAFWCSIAYYELNQRVGETFHASQPSLTVDGFTDPSNSERFCLGLLSNVNRNATVEMTRRHIGRGVRLYYIGGEVFAECLSDSAIFVQSPNCNQRYGWHPATVCKIPPGCNLKIFNNQEFAALLAQSVNQGFEAVYQLTRMCTIRMSFVKGWGAEYRRQTVTSTPCWIELHLNGPLQWLDKVLTQMGSPSVRCSSMS

binding (GST-Smad4-MH2 [1]): binds | binding [2]: no binding | binding [3]: no binding | binding [4]: no binding
B3: His-Arl15-AL (protein, UniProt Q9NXU5 1-204)
chain: MSDLRITEAFLYMDYLCFRALCCKGPPPARPEYDLVCIGLTGSGKTSLLSKLCSESPDNVVSTTGFSIKAVPFQNAILNVKELGGLDNIRKYWSRYYQGSQGVIFVLDSASSEDDLEAARNELHSALQHPQLCTLPFLILANHQDKPAARSVQEIKKYFELEPLARGKRWILQPCSLDDMDALKDSFSQLINLLEEKDHEAVRM

binding [5]: binds | binding [6]: binds weakly | binding [7]: no binding (condition: with 1 µM GDP) | binding [8]: binds
B4: endogenous Arl15 (protein, UniProt Q9NXU5 1-204)
chain: B3 chain with L86A

binding (GST-Smad4 [9]): binds
B5: Arl15-AL-Myc Y96F (protein, UniProt Q9NXU5 1-204)
chain: B3 chain with Y96F

binding (GST-Smad4-MH2 [1]): no binding | binding [2]: no binding | binding [3]: no binding | binding [4]: no binding
B6: His-Arl15-TN (protein, UniProt Q9NXU5 1-204)
chain: B3 chain with T46N, L86A

binding (GST-Smad4 [9]): binds
B11: Arl15-AL-Myc R95C (protein, UniProt Q9NXU5 1-204)
chain: B3 chain with R95C

More lines, now with the values behind:

B7: Arl15-AL-Myc (protein, UniProt Q9NXU5 1-204)
chain: B3 chain
binding (GST-Smad4 [9]): binds

B8: Arl15-AL-Myc R90L (protein, UniProt Q9NXU5 1-204)
chain: B3 chain with R90L
binding (GST-Smad4 [9]): binds

B9: Arl15-AL-GFP (protein, UniProt Q9NXU5 1-204)
chain: B3 chain
binding (GST-Smad4-MH1): no binding | binding (GST-Smad4 [10]): binds | binding (GST-Smad4-MH2 [11]): binds

B10: Arl15-AL (co-expressed in the MH1-MH2 pull-downs of Figure 4a and c) (protein, UniProt Q9NXU5 1-204)
chain: B3 chain
binding (HA-Smad4-MH2): binds
